Laboratory results from paper PMC4336329 (PLoS ONE, 2015).
Out of some 310,000 compounds screened, about 14,000 (4.5%) showed an effect of 50% or more. Effects have a minus sign here. The list shows a part of the results.

Each compound was assayed against human ether-à-go-go-related gene (hERG) potassium channel (human, UniProt Q12809) (assay: primary screen, population patch clamp on CHO cells stably expressing hERG).
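Note: peak tail current of the secondary pulse compared with the same well before compound.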

Chain of human ether-à-go-go-related gene (hERG) potassium channel (Q12809 whole entry, looked up): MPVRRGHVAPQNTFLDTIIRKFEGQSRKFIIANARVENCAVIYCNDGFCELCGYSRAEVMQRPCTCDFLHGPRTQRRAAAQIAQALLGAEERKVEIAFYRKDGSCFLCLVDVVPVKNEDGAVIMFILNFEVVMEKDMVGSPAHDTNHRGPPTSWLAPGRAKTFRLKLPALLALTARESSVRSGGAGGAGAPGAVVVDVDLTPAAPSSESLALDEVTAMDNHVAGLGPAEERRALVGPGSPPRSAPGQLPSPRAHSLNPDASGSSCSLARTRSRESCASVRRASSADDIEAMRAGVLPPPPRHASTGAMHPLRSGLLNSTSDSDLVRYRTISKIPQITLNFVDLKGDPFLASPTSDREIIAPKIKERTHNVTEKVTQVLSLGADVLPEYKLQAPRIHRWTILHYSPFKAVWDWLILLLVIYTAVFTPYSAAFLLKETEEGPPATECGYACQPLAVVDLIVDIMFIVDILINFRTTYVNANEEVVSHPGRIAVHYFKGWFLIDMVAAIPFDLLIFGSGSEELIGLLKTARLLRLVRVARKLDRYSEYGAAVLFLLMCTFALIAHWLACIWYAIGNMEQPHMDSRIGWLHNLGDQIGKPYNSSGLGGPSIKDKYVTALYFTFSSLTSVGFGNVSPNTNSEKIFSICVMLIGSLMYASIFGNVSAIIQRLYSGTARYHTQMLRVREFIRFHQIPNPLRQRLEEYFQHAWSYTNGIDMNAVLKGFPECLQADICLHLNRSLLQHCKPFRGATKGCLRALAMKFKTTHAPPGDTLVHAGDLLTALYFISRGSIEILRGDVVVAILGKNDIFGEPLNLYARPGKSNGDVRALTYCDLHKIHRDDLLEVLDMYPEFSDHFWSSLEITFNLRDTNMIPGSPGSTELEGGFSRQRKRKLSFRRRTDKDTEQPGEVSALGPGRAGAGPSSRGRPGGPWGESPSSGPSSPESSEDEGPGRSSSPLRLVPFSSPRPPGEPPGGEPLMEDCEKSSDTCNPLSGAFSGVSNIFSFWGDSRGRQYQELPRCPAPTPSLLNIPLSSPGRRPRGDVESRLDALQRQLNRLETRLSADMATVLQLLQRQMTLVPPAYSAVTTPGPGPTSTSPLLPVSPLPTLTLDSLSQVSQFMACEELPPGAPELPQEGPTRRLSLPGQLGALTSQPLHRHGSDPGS

Structure (SMILES) | hERG current change (%, negative = inhibition) at 10uM [%]
Cc1cc(NC(=O)COC(=O)C(Nc2ccc(C(F)(F)F)cc2Cl)C(C)C)no1 (stereo not drawn) | 15.1
CCCOc1ccc(CNC(=O)Cc2cccs2)cc1 | 9.1
NC(N)=N/N=C/c1ccc(OCc2ccc(Cl)cc2Cl)cc1 | -2.19
O=P(c1ccccc1)(c1ccccc1)C(O)c1ccccn1 (stereo not drawn) | 13.1
COCCCN(C(=O)c1cc(-c2ccco2)nc2ccccc12)c1c(N)n(Cc2ccccc2)c(=O)[nH]c1=O | -9.85
COC(=O)C1=C(c2ccc(Cl)c(C(F)(F)F)c2)C[C@@H]2CC[C@H]1N2C(=O)N1CCOCC1 | -6.22
C=CCN(CC=C)S(=O)(=O)c1ccc(NC(=S)NC(=O)/C=C/c2ccccc2)cc1 | -9.16
COc1ccccc1N1C(=O)C2C(C(=O)c3ccccc3)=NN(c3ccccc3)C2C1=O (stereo not drawn) | 9.25
S=c1[nH]c2ccccc2n1CCOc1ccccc1 | 8.28
CCOC(=O)c1[nH]c(C)c(C(=O)Nc2ccccc2C)c1C | 3.89
CC(C)C(=O)Nc1cccc(NC(=O)c2cccc(F)c2)c1 | 5.16
COc1ccc(NC(=O)/C(=C/c2cccnc2)NC(=O)c2cccs2)cc1 | 16.8
Cc1sc(NC(=O)c2ccco2)c(C(c2ccc(F)cc2)N2CCN(C)CC2)c1C (stereo not drawn) | -68.1
COc1cc(/C=N/OCC(=O)Nc2cc(C)cc(C)c2)ccc1OCc1ccc(Cl)cc1 | -13.2
Cc1cc(=O)oc2cc(OC(C)C(=O)N3CCOCC3)ccc12 (stereo not drawn) | 7.85
COc1cccc(-c2nnc3n2N=C(C(C)(C)C)CS3)c1 | -31.6
CCOC(=O)c1c(NC(=O)c2cc3n(n2)C(C(F)(F)F)CC(c2ccccc2)N3)sc(C)c1C (stereo not drawn) | 3.47
COc1ccc(OC)c(C2C(C#N)=C(N)Oc3cc(C)[nH]c(=O)c32)c1 (stereo not drawn) | 15.2
Cc1oc(-c2ccc(Cl)cc2)nc1CN1CCCN(C(=O)c2ccco2)CC1 | -72.4
O=C(/C=C/Nc1ccc([N+](=O)[O-])cc1Br)c1cccc2ccccc12 | 0.163
Cc1cc2c(Nc3cccc(O)c3)ncnc2s1.Cl | 5.03
N#CC1=C(N)N(c2ccc(F)cc2)C(=O)C1 | 1.83
CCCCN(CCCC)C(=O)/C=C/c1cccc([N+](=O)[O-])c1 | -68

Structure (SMILES) | hERG current change (%, negative = inhibition) at 10uM [%]
Cc1cc(C)cc(N2CCCn3c2nc2c3c(=O)[nH]c(=O)n2C)c1 | 13.6
O=C(Nc1ccc2oc(-c3cccnc3)nc2c1)c1ccc2c(c1)OCCO2 | 20.2
CC(C)Cc1cc(C(=O)Nc2ccc3c(c2)OCO3)no1 | -4.32
Cc1cccn2cc(-c3cccc(NC(=O)c4cccs4)c3)nc12 | -29.3
O=C(CN1C(=O)c2ccccc2C1=O)OCC(=O)c1ccc(F)cc1 | -2.92
Cc1ccc(OCc2nc(C#N)c(NCc3ccc4c(c3)OCO4)o2)cc1 | -1.97
Cc1cc(C)c(S(=O)(=O)N2CCCC(C(=O)NCc3ccccn3)C2)c(C)c1 (stereo not drawn) | -10.8
COC(=O)c1cc2ccccc2n1S(=O)(=O)c1ccccc1 | 2.84
CCOC(CNC(=O)c1cccn2c(=O)c3c(C)c(C)sc3nc12)OCC | -12.5
COc1ccc(CNC(=O)C2CC(c3ccccc3[N+](=O)[O-])=NO2)cc1 (stereo not drawn) | -27.7
CCc1ccc(OCC(=O)Nc2ccncc2)cc1 | 11
CCN(CC)c1ccc(/C=N/NC(=O)Nc2ccccc2)cc1 | 16.9
N#CCC(=O)N1CCN(Cc2ccc3c(c2)OCO3)CC1 | 16.3
Cc1oc2c(CN3CCCC3)c(O)ccc2c(=O)c1-c1ccccc1 | -15.5
O=C(O)CCn1c(C(=O)O)cc2sccc21 | 13.1
CC(C)CNS(=O)(=O)c1ccc2c(c1)OCCO2 | -11
CCOc1ccc(/C=C/C(=O)c2c(O)c3ccccc3oc2=O)cc1 | -2.13
CCCOP(=O)(c1ccc(N(C)C)cc1)C(O)c1ccc(Cl)cc1 (stereo not drawn) | 9.5
OCCC1CN(Cc2cccc(OC3CCCC3)c2)CCN1Cc1ccsc1 (stereo not drawn) | -70
CC(C)(Oc1ccc(-c2ccco2)cc1)C(=O)O | 5.04
O=C(c1ccccc1F)N1CCN(C(=O)C2CC2)CC1 | 11
CCC(CC)C(=O)N1N=C(c2ccc(NS(C)(=O)=O)cc2)CC1c1ccc(C)cc1 (stereo not drawn) | -7.85
O=C(Cc1cccs1)Nc1cccc(-c2nnc(-c3ccco3)o2)c1 | -8.31

Structure (SMILES) | hERG current change (%, negative = inhibition) at 10uM [%]
CCN(CC)c1ccc2cc(-c3nc4ccccc4[nH]3)c(=O)oc2c1 | 14.5
CC(Sc1ccc2c(c1)OCCO2)C(=O)Nc1ncc(Cl)cc1Cl (stereo not drawn) | -8.66
Cc1cc(C)n2nc(C(=O)OCC(=O)NCc3ccc(Cl)cc3)nc2n1 | -48.3
CC(Oc1ccccc1)C(=O)N1CCN(C(=O)C(C)Oc2ccccc2)CC1 (stereo not drawn) | 8.52
CCn1c(SCC(=O)Nc2nnc(C)s2)nnc1-c1ccco1 | -5.98
CCOC(=O)c1sc2cc([N+](=O)[O-])cc(SCC(=O)OC)c2c1N | -9.57
O=S(=O)(c1cccc(NC(=S)N2CCN(c3cccc(Cl)c3)CC2)c1)C(F)F | -1.33
C/C(=N/NC(=O)c1cc(-c2cccc([N+](=O)[O-])c2)n[nH]1)c1cccc(O)c1 | 28.3
O=S(=O)(Nc1ccc(-n2cccc2)cc1)c1ccc(F)cc1 | 8.83
COc1ccc(NC(=O)/C=C/c2ccc(F)cc2)cn1 | 4.03
CC(=O)c1sc(NC(=O)CCS(=O)(=O)c2ccc(C)cc2)nc1C | 3.57
CC(NC(=O)CSc1nnc2n1CCCCC2)c1ccccc1Cl (stereo not drawn) | -6.43
CCc1cc2c(NCc3ccco3)ncnc2s1.Cl | -17.8
O=C(c1ccc2ncsc2c1)N1CCCCC1 | 17.9
Cc1cc(NC(C)c2ccccc2)n2ncc(-c3ccccc3)c2n1 (stereo not drawn) | 4.37
CCCCn1ccnc1C(=O)c1ccc(S(=O)(=O)N2CCCC2)cc1 | -28.9
O=C(c1cc(-c2cccc(Cl)c2)on1)N1CCN(c2ccc(F)cc2)CC1 | 6.92
CC/C(=C\C1CCCCC1)C(NP(=O)(c1ccccc1)c1ccccc1)c1ccccc1 (stereo not drawn) | 12.6
O=C(COC(=O)c1ccccc1F)NC(=O)NC1CCCC1 | 1.24
COc1ccc(CCN2CC(C(=O)NCC3(O)CCCCC3)CCC2=O)cc1 (stereo not drawn) | 17.1
COc1ccc(C(=O)NCC(=O)N/N=C(\C)c2ccco2)cc1OC | 14.8
CCOc1ccc(NC(=O)CCC(=O)N/N=C/c2ccc([N+](=O)[O-])s2)cc1 | -20.6
CCn1c(CC(=O)Nc2cccc(OC)c2)nnc1SCC(=O)N1CCN(c2ccccc2)CC1 | -11.5

Structure (SMILES) | hERG current change (%, negative = inhibition) at 10uM [%]
COCCNC(=O)c1ccc(CS(=O)(=O)c2c(Cl)cccc2Cl)o1 | 0.994
COCCn1c(SCC(=O)NNC(=O)c2ccccc2)nc2ccccc2c1=O | -29.4
Cc1cc(NC(=O)CSc2nccn2C)no1 | -1.04
O=C(CCC1CCCCC1)Nc1cc(C(F)(F)F)ccc1N1CCOCC1 | -2.19
COc1ccc(NC(=O)CSc2nnc(-c3cccs3)n2N)c(OC)c1 | 0.565
O=C(O)c1cccc(-n2cccc2/C=N/O)c1 | 11.4
Cc1sc2ncn(CCn3cnc4sc(C)c(C)c4c3=O)c(=O)c2c1C | -19.3
CC1CCN(C(=O)COC(=O)c2cn(C)c3ccccc23)CC1 | -10.5
NC(=S)Cc1nc(-c2ccccc2)cs1 | 16
O=C(NCc1cccnc1)c1ccc(-c2ccccc2[N+](=O)[O-])o1 | -23.5
COC(=O)c1cccc(NC(=O)Cc2ccsc2)c1 | 1.14
Cc1cccc(CNC(=O)c2ccccc2NC(=O)C2=CSCCO2)c1 | 21.1
Cc1ccc(-n2nc3c(c2NC(=O)c2ccccc2Br)CS(=O)C3)cc1 (stereo not drawn) | 4.13
NC(=O)C1CCCN(S(=O)(=O)c2ccc(Br)cc2)C1 (stereo not drawn) | -8.17
COc1ccc(Cn2c(O)c(C=NCCN3CCOCC3)c(=O)[nH]c2=O)cc1 | -14.4
CN(CC(=O)N1CCCC1)S(=O)(=O)c1ccc(Cl)cc1 | -10.2
C=CCN1C(=NC(=O)CC)SC2CS(=O)(=O)CC21 (stereo not drawn) | 25.3
CC(C(=O)c1ccc(Br)cc1)[n+]1cccc2ccccc21.[Br-] (stereo not drawn) | -13.8
Cc1cccc(-n2cc(C(=O)O)c(=O)cc2C)c1 | 16.1
COc1ccc(C)cc1C(=O)C1CC(C(=O)O)C(C)(C)C1C (stereo not drawn) | -2
Cc1ccccc1NC(=O)c1ccccc1O | 9.03
